Assay: soluble on expression in E. coli; label from the status in PepcDB or PDB records

Sequence	soluble on expression in E. coli
MTNSKGLRRGTRYMFARDFRKHGVEHLSTYYTQYKRGDLVDIKTNGAFQKGMPFKAYHGRTGRIFNVTRGAVGIIVNKRVRGNILPKRINIRIEHIKPSKCRTDFLNRVKSNDEKRKAAKSAGQPVPALKRLPVAPRGAHTVTTQNNEPELLAPLRFEIVA	not soluble
MGRRIRIQRKGAGGIFKSHNKHRKGASKLRPLDYAERHGYIKGLVKDIIHDPGRGAPLAIIAFRDPYKYKTVKTTVVAAEGMHTGQFIHCGAKAQIQIGNIVPVGTLPEGTTICNVENKSGDRGVIARASGNYATVIAHNPDTKKTRIRLPSGAKKVVQSVNRAMIGLVAGGGRTDKPLLKAGRSYHKYKAKRNSWPRVRGVAMNPVEHPHGGGNHQHIGHPSTVRRDASAGKKVGLIAARRTGRIRGGKPVKFTKEENV	not soluble

Source: the DeepSol protein solubility set
